Test system: Jeko-1 (CD72+) cells
Test: CTX206 CAR-T co-culture with Jeko-1 cells, anti-CD19 staining of remaining target cells
Assay type: cell-based
Conditions: 96 hrs co-culture; 0.5:1, 1:1 and 2:1 E:T ratios; FIG. 6A
Protocol: FIGS. 6A-6C. Activation markers expressed in CAR-T cells upon CD72-target cell-specific activation are shown. FIG. 6A. CTX206 CAR-T cells were cultured with Jeko-1 cells for 96 hrs at 0.5:1, 1:1, and 2:1 E:T ratios followed by staining with CD19 to detect remaining Jeko-1 cells. Plots were obtained by excluding dead cells. Red squares indicate residual Jeko-1 cells left in culture. FIG. 6B. CTX206 and CTX208 CAR-T cells were assessed for expression and specific upregulation of indicated markers in response to Jeko-1 (CD72+) cells. Activation markers CD25 and CD137 were co-stained with CD4 and CD8 antibodies. T cells transduced with pCTX control vector served as a negative control. FIG. 6C. Upregulation of CD137 was measured in CTX206 or CTX208 CAR-T cells upon Jeko-1 target cell co-culture. […]
CD72 CAR-T cells were further characterized phenotypically and functionally in the context of CD72-target cell-specific activation. […] CTX206 and CTX208 CAR-T cells were assessed for expression and specific upregulation of CD25 and CD137 in response to Jeko-1 (CD72+) cells, as shown in FIG. 6B and FIG. 6C. […] Proliferation as associated with CD137 expression (FIG. 7) and CD25 expression (FIG. 8) in CTX206 or CTX208 CAR-T cells was evaluated 72 hours-post stimulation with Jeko-1 cells in the absence of cytokines. […] Cell Trace Violet dye dilution and anti-CD137 antibody staining were assessed by FACS. […]

B1: pCTX206: CD72-directed CAR (SEQ ID NO:87): sc02-004 scFv, IgG4 hinge, CD28 transmembrane and signaling domains, CD3ζ; expressed in T cells (protein)
chain: MLLVTSLLLCELPHPAFLLIPAEVQLVESGGGLVQPGGSLRLSCAASGFTFSGYLMSWVRQAPGKGLEWVAVISYDGSNKYYADSVKGRFTISRDNSKNTLYLQMDSLRAEDTAVYYCARARRDTNLFDYWGQGTLVTVLEGTGGSGGTGSGTGTSELTQSPSSLSASVGDRVTIT[… about 80 residues …]FGQGTKVEIKRAAAESKYGPPCPPCPFWVLVVVGGVLACYSLLVTVAFIIFWVRSKRSRLLHSDYMNMTPRRPGPTRKHYQPYAPPRDFAAYRS[… about 120 residues …]
modifications: pCTX206 CAR-GMSCFR signal peptide-sc02-004 scFv-IgG4 Hinge-CD28 TM-CD28 ICD-CD3z
notes: expressed in T cells
Question: B1 was tested. Which “remaining Jeko-1 target cells (anti-CD19 staining)” value did it give?
Answer: Dose dependent decreases in target cells

Source: patent US20240058446A1, “CHIMERIC TIM4 RECEPTORS AND USES THEREOF” (CERO THERAPEUTICS, INC., priority 2019, published 2024)
